In the RNAGym collection of RNA variant scans (doi:10.7554/elife.90254) one finds self-cleavage data, which are given here for 56 variants.

Sequences and labels used below:
B1: LINE1-mini (parent)
chain: GGCAGAGCUCAACACAGCGUGGCAAAGUGGCUGUGGCUAGACUGCC

The source gives no read counts; variants with many changes may rest on few reads.

In the data set the parent is B1. Nature of the data set: self-cleavage, relative activity (ratio to wild type); higher = more cleavage; in vitro, sequencing; the parent is a self-cleaving ribozyme.
As for GGGAGAGCACAUCACAGCGCGGCAAAGUGGCUGUGGCUGGACUGCC, the self-cleavage was 0.1.

Regarding GGUCGAGCUCAACACAGCGUGGCAAAGUUGCUCUGGCUAGACUGUC, the self-cleavage amounted to 0. In the case of UGCAGAGCACAACACAGGGUAGCAAAGUGGCUGUGGCUAGACUGCC, the self-cleavage was found to be 0.03.

As for GGCAGAGCUACACACAGCGUGGCACAGUGGCUGUGGCUAGACUACC, the self-cleavage stood at 0.02. Take GGCUGAGCUCAAUCCAGCGUGGCAAAGUCGCUGUGUGUAGACUGCC: the self-cleavage stood at 0.08. The same measure for GGCAGAGCUCAAUACAGCGUCGGAAAGUGGCUGUGGCUAGACUGCC: 0.08.

With AGCAGAGCUCAACACAGCGUGGCAAUGUGGUUGUGGCAAGACUGGC, the self-cleavage was 0.13. The same measure for GGCAGAACUCAAUACAGAGUGGCAAAUGGGCUUUGGCUAGACUGCC: 0.06; for GGCAGCGCUCAACACAGCGUGGAAAAGUGGCUGUGGCUAGACGGUC: 0.02; for GGCAAAGCGCUACACAGUAUGGCAAAGUGGCUGUGGCUAGACUGCC: 0.01.

Turning to GGCAGAGCUCAACAAAGAGUGGCAAAGUGGAUGUGGCUAGACUGCC, the self-cleavage came out at 0.

GGCAGAGCUCAACACAGCGUGGUAAUUUGGCUGUGGCUGGACUGCC: the self-cleavage came out at 0.05. GGCAGAGGUCAACACAGCGUGGCCAAUUGGCUGUGGCUAGACAGCC: the self-cleavage worked out at 0.02.

As to GGCAGAGCUCUACACUGCAUGGCAAAAUGGCUGUGGCUAGACUGAC, the self-cleavage amounted to 0.02. The same measure for GGCAGAGCUCCACACAACGUGGCAAAAUGGCUGUGGCUAGACUGCC: 0.03. As for GGCAGAGGUCAAGACAGCGUGGCAAAGUGGCUGUGCCUAGACUGCC, the self-cleavage stood at 0.01. On to GGCACAGCUCAUCACAGCGUGGCAAAUUGGCUGUUGCUAGACUGCC, for which the self-cleavage came to 0.03. On to GGCAGUUCUCACCACAGCGUGGCAAAGUGGCUGUGGCUAGACUGCC, for which the self-cleavage amounted to 0.05. With AGCUGCCCUCAACACAGCGUGGCCAACUGGCUGUGGCUAGACUGCC the figure was 0.18. As to GGCAGGGCUCAACUCAGCGUGCCAAAGUGGCUGUGGCUAAACUGCC, the self-cleavage was 0.05. With GGCAGAGCUAAAGACAGCGUGGCAAAGAGGCUGUGGUUAGACUGCC the figure was 0.02; with GGCAGAGCUCAACACUGCGUGGCAAAGUGGCUGUGGCUAGACUGUG, 0; with GCCAGAGCGCAACACAGCGUGGCUAAGUGGCUGUGGCUAUACUGCC, 0.08. The same measure for GGCAGAGCUAAACCCAGCGUGGCAAAGUGGCUGUGGCUAGACUGGC: 0.01. With GGAAGAGCUCAACACAGUGUGGCGAAGUGGCUGUGGCUAGACUGCC the figure was 0.09; with GGCAGAGCUCAACACAGCGUGGAAAAUUGGCUAUCGCUAGAAUGCC, 0.17.

As to GGCAGAGCUCAACACAGCGUGGAGAAAUGGCUGUGGAUAGACUGCC, the self-cleavage worked out at 0.03. With GGCCGUGAUCAACACAGCGUGGCAAAGUGUCUGUGGCUAGACUGCC the figure was 0.96; with GGCAGAGCUCAACACUACGUGGCAAAGUGGCUGUGGCAAGACUUCC, 0.01; with GGCACCGCUCAACACAGCGUGGCAAAGUAGCUGUGCAUAGACUGCC, 0.11. Consider GGCAGAGCUCAACACAGCGUGUGAGAGUGGCUGUGGCUAGACUGCC, for which the self-cleavage was determined as 0.64.

Take GGCAGGGCUCAAGACCGCGUGGCAAAGUGGCUGUGGCUAGACUGCC: the self-cleavage turned out to be 0.03.

Consider GGCAGAGCUCAACAAAGCGUGGCAAAGUGGCUGUGUCUAGACUGAC, for which the self-cleavage was 0.03. With GGCAGAGCUCAACACAGGGUGGCACAGUGGCUGUGGGUAGUCUGCC, the self-cleavage is 0.01. Consider GGCAGAGCUCAACACAGCGUGACAAAGGGACUGUGGCUAGACUGCA, for which the self-cleavage came to 0.25. With GGCCGAGGUCAACACAGCGUGGCAAAGUGGGCGUGGCUACACUGCC the figure was 0.04; with GGCAGACCUCAACACAGCGUGGCAAAGGGGCUGUGGCUAGACUACC, 0.03; with GGCAGAGCUGAACACAGCGUGGCAACGUGGUUGUGGCUGGACUUCC, 0.01. With GGCAGAGAUCAACACAGCGUUGCAAGGUGGCUGUGGCUAGACUGCC the figure was 0.38; with GGCAGAGCUCAACACAGUGUGGCAAAGUGGCUAUGGCUGGACUGCC, 0.02.

For the variant GGCAUAGAUCAACGCAGCGUGGCAAAGUGGCUGUGGCUAUACUGCC, the self-cleavage turned out to be 0.2. With GGCAGAGCUCAACACAGCGUGGCAAAGUGGCUAAGGUUAGACUGCC the figure was 0. Take GGCAGAGCCCAACACAUCGUCGCAAAGUCGCUGUGGCUAGACUGCC: the self-cleavage is 0.02. The same measure for GGCAGAACUCCACACAGCGUGGCAAAGUGGCUGUGACUCGACUGCC: 0.02; for GGCAGAGCUCAACACAGCGAGGCAGCGUGGGUGUGGCAAGACUGCC: 0.02.

Regarding GGCUGAGCUCAACACAGCGUCGCAAAGUGACGAUGGCUAGACUGCC, the self-cleavage is 0.02. Consider GGCAGACCUCAACACAGCGUGGAAAAGUGCUGGUGGCUAGACUGCC, for which the self-cleavage amounted to 0.03. On to GGCAGUGCUCAACACAGCGUGGCAAACUGGCUGUGGCUAGCCUGCC, for which the self-cleavage was determined as 0.05.

Turning to GGCAGAGCUCAACACAGCGUGGCAAAGUGGCAGUGGCUAGAACGCC, the self-cleavage worked out at 0.06. With GGCAGAGCUCAGCACAGCGUGGCAAAGUUGCCCUGGAUAGACUGCC the figure was 0.04.

For the variant GGCAGAGCUCAACACUGCAUGGCAAAGUGGCUGUGGCGAGAGUGCC, the self-cleavage turned out to be 0.03. In the case of GGCACAGCUCAAAACAGUGUGGCAAAGUGGCUGUGGCUAGACAGCC, the self-cleavage turned out to be 0.06.

Turning to GGCAGCGCUCAACAUAGCGUGUCAAAGUGGCUGUGGCUAGACCGCC, the self-cleavage is 0.02. For the variant GGCAUAGCUCAACACAACGUGGCAAAGUGGCUCUGGCUAGACUGCC, the self-cleavage is 0.02. With GGCAGAGCUCAACACAGAGUGGCAAAGUGGCUGUGGCUAGACUAAG the figure was 0.03; with GGCAGAGCUCAACAUAGCGUGGCAAACGGGCUGGGGCUAAACUGCC, 0.02.
